About 450 (0.94%) of roughly 48,000 compounds were called active. Inconclusive results, whose numbers are uncertain, are shown with a selection of clear calls. Calls follow the shape of the dose curve; as a rule, active = well fitted inhibition curve with a large enough effect; inconclusive = small, poorly fitted or top-dose-only effect; inactive = no such curve, though single readings can be large or run the other way. Potencies beside an inconclusive call are fits to weak or partial responses and may not hold up.
Experiment: Primary qHTS for Identification of Small Molecule Inhibitors of Huntingtin Promoter Activity; also: nearly all actives have a fitted effect of over 50% in size
Settings: HEK293 HTT promoter firefly luciferase reporter (activity 0% = vehicle and -100% = no light), 24 h; activity change, negative = inhibition: at 57.5 µM (top of the series)
Method in brief: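 HEK293 cells carrying firefly luciferase reporters were seeded at 2,500 per well in Opti-MEM and cultured for 24 h. They were then treated with compounds at up to 57.5 uM final for 24 h at 37 degrees C before Dual-Glo luminescence readout.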
Potency is read from the fitted curve at half-maximal effect; tags tell the direction and shape of the fitted curve.

| Structure (SMILES) | Potency | activity change, negative = inhibition |
| --- | --- | --- |
| CCOc1ccc(C(=O)Nc2ccc3c(c2)N(C(C)=O)CCC3)cc1OCC | inconclusive: 39.8 µM [inhibitor, single point] |  |
| COc1ccc(NS(=O)(=O)c2ccc3c(c2)NC(=O)CCS3)c(OC)c1 |  | inactive: -34.8% |
| CC(=O)N1c2ccc(S(=O)(=O)NCC3CCC(C(=O)Nc4cc(C)cc(C)c4)CC3)cc2CC1C (centres undefined) | inconclusive: 22.4 µM [inhibitor, single point] |  |
| CCc1c(C)nc2nncn2c1Nc1cccc(C)c1 | inconclusive: 31.6 µM [inhibitor, partial curve] |  |
| N#Cc1ccccc1S(=O)(=O)N1CCC(Oc2ccc(-n3cnnn3)cc2)CC1 | inconclusive: 20 µM [inhibitor, partial curve, poor fit] |  |
| Cc1ccc(C)c(NC(=O)Cn2nnc(C(=O)NCc3ccco3)c2N)c1 | inconclusive: 5.62 µM [inhibitor, partial curve] |  |
| Cc1ccccc1CNC(=O)C1CCCN(c2nnc(-n3c(C)ccc3C)s2)C1 (centres undefined) |  | inactive: -13.2% |
| CCOC(=O)c1cc(-c2ccccc2)n(CCCC(=O)Nc2ccc(C)c(C)c2)c1C | inconclusive: 22.4 µM [inhibitor, single point] |  |
| Cn1cc(S(=O)(=O)N2CCCCCC2)cc1C(=O)N1CCN(c2ccc(Cl)cc2)CC1 | inconclusive: 35.5 µM [inhibitor, single point] |  |
| Cn1c(=O)c2c(ncn2CC(=O)Nc2cc(Cl)cc(Cl)c2)n(C)c1=O | inconclusive: 31.6 µM [inhibitor, partial curve, poor fit] |  |
| CCOC(=O)c1c(C)oc2ncnc(N3CCN(c4cccc(Cl)c4)CC3)c12 | inconclusive: 25.1 µM [inhibitor, single point] |  |
| CC1=C(C(=O)Nc2ccccc2)C(c2ccccc2Cl)n2ncc(C(=O)Nc3cccc(C)c3)c2N1 (centres undefined) |  | inactive: -14.8% |
| Cc1ccc(S(=O)(=O)N[C@@H](Cc2ccccc2)C(=O)CCl)cc1 | inconclusive: 21.7 µM [inhibitor, partial curve] |  |
| O=C(NCC(c1cccs1)S(=O)(=O)c1cccs1)c1ccc(C(F)(F)F)cc1 (centres undefined) | inconclusive: 39.8 µM [inhibitor, single point] |  |
| COc1ccc(N(C(=O)COc2ccc(Br)cc2)S(=O)(=O)c2ccc(C)cc2)cc1 | inconclusive: 35.5 µM [inhibitor, single point] |  |
| O=C1Nc2cc(Cl)ccc2Oc2cc(Oc3ccccc3)ccc21 | inconclusive: 28.2 µM [inhibitor, partial curve, poor fit] |  |
| Cc1ccc(C)c(CN2C(=O)c3ccccc3S(=O)c3ccc(C(=O)NCc4ccco4)cc32)c1 (centres undefined) | inconclusive: 39.8 µM [inhibitor, single point] |  |
| Cc1ccc(NC(=O)Cn2cc(S(=O)(=O)NC(C)C)c(S(=O)(=O)NC(C)C)c2)cc1Cl | inconclusive: 39.8 µM [inhibitor, partial curve, poor fit] |  |
| COc1ccc(Oc2nc3c(c(=O)n(Cc4ccccc4Cl)c(=O)n3C)n2C)cc1 | inconclusive: 20 µM [inhibitor, partial curve, poor fit] |  |
| Cc1cc2ccccc2n1-c1ccc(C(=O)N2CCC(C(=O)NCc3ccc(F)cc3)CC2)s1 | inconclusive: 31.6 µM [inhibitor, single point] |  |

| Structure (SMILES) | Potency | activity change, negative = inhibition |
| --- | --- | --- |
| COc1ccc(CNC(=O)Cn2ccc3cc(S(=O)(=O)N4CCCCCC4)ccc32)c(OC)c1 | inconclusive: 39.8 µM [inhibitor, single point] |  |
| COc1cccc(NC(=O)c2ccc(CNS(=O)(=O)c3ccc4c(c3)C(C)(C)C(=O)N4C)cc2)c1 | inconclusive: 31.6 µM [inhibitor, partial curve, poor fit] |  |
| Cc1ccc(-c2nnc(Nc3ccc(O)cc3)c3ccccc23)cc1S(=O)(=O)NCC1CCCO1 (centres undefined) | inconclusive: 17.8 µM [inhibitor, partial curve, poor fit] |  |
| CN(C)c1cccc(C(=O)Nc2ccc(-c3nc4ccccc4s3)cc2)c1 |  | inactive: -20.7% |
| O=C(CSc1nc2c(oc3ccccc32)c(=O)[nH]1)Nc1cccc(Cl)c1 |  | inactive: 6.41% |
| Cc1ccc(CCNC(=O)c2ccc(CSCc3ccc(C)cc3)o2)cc1 | inconclusive: 31.6 µM [inhibitor, partial curve] |  |
| CC(=O)N[C@@H]1[C@H](O[C@@H]2c3ccc(c(Cl)c3)Oc3cc4cc(c3O[C@H]3O[C@H](CO)[C@@H](O)[C@H](O)[C@H]3NC(=O)CCCCCCCC(C)C)Oc3ccc(cc3Cl)C[C@H]3NC(=O)[C@H](N)c5ccc(O)c(c5)Oc5cc(O)cc(c5)[C@H](NC3=O)C(=O)N[C@H]4C(=O)N[C@H]3C(=O)N[C@@H]2C(=O)N[C@@H](C(=O)O)c2cc(O)cc(O[C@H]4O[C@H](CO)[C@@H](O)[C@H](O)[C@H]4O)c2-c2cc3ccc2O)O[C@H](CO)[C@@H](O)[C@@H]1O |  | inactive: -4.8% |
| Cc1cccc(-n2ncc3c(Nc4c(C)cc(C)cc4C)ncnc32)c1 | inconclusive: 7.08 µM [inhibitor, partial curve] |  |
| CCc1ccc(NC(=O)c2ccc3c(c2)c(C)c(C)n3Cc2ccccc2)cc1 | inconclusive: 28.2 µM [inhibitor, single point] |  |
| Cc1ccc(S(=O)(=O)Nc2ccc3c(c2)c(C(=O)OC(C)C)c(C)n3S(=O)(=O)c2ccc(C)cc2)cc1 | inconclusive: 31.6 µM [inhibitor, partial curve, poor fit] |  |
| O=S(=O)(Nc1ccc(Br)cc1)c1ccc2nc(-c3ccccc3)[nH]c2c1 | inconclusive: 28.2 µM [inhibitor, single point] |  |
| Cc1ccc(CCNC(=O)CN2CCN(Cc3ccc(Cl)cc3)C2=O)cc1 |  | inactive: -14.6% |
| Cc1cccc(-c2[nH]c(C(C)(C)C)nc2-c2ccc3c(c2)OCO3)n1 | inconclusive: 10.9 µM [inhibitor, full curve] |  |
| COc1ccc(CCNC(=O)Cn2ccc3cc(S(=O)(=O)N4CCCCC4)ccc32)cc1OC | inconclusive: 17.8 µM [inhibitor, single point] |  |
| Cn1nnnc1SCCCNCc1ccccc1OCc1ccccc1F | inconclusive: 17.8 µM [inhibitor, partial curve, poor fit] |  |
| Cc1cccc(NC(=O)c2ccc(F)c(S(=O)(=O)NCc3ccc4c(c3)OCO4)c2)c1 | inconclusive: 39.8 µM [inhibitor, partial curve, poor fit] |  |
| CCc1ccc(NCc2cc3ccc(OC)cc3n(CC(=O)Nc3ccccc3OC)c2=O)cc1 | inconclusive: 39.8 µM [inhibitor, single point] |  |
| CCN(C(=O)c1c(O)c2c(Cl)cccc2n(C)c1=O)c1ccccc1 |  | inactive: -12.1% |
| CCCN(CCC)C(=O)Cn1c(=O)n(-c2ccc(CC)cc2)c(=O)c2c3c(sc21)CCC3 |  | inactive: -14.6% |
| CCSc1ncc(Cl)c(C(=O)Nc2ccc(S(=O)(=O)N3CCCCC3CC)cc2)n1 (centres undefined) | inconclusive: 28.2 µM [inhibitor, partial curve, poor fit] |  |

| Structure (SMILES) | Potency | activity change, negative = inhibition |
| --- | --- | --- |
| Cc1ccc(CN(C(=O)COc2cccc(Cl)c2)c2ccccn2)o1 | inconclusive: 39.8 µM [inhibitor, partial curve, poor fit] |  |
| COc1cc(O)ccc1-c1nc2ccc(Br)cn2c1Nc1ccccc1C | inconclusive: 28.2 µM [inhibitor, single point] |  |
| COc1cccc(-n2ccnc2SCC(=O)Nc2nc3ccc(C)cc3s2)c1 | inconclusive: 39.8 µM [inhibitor, single point] |  |
| C1CCC(C(CC2CCCCN2)C2CCCCC2)CC1 (centres undefined) | inconclusive: 39.8 µM [inhibitor, single point] |  |
| CC(=O)Nc1ccc(NC(=O)c2ccc3c(c2)CCN3S(=O)(=O)c2ccc(Cl)cc2)cc1 | inconclusive: 31.6 µM [inhibitor, partial curve, poor fit] |  |
| CCCCOc1ccc(C(=O)NCCS(=O)(=O)N2CCN(c3ccccc3OC)CC2)cc1 | inconclusive: 31.6 µM [inhibitor, partial curve, poor fit] |  |
| CCN(C(=O)CSc1nc2ccccc2nc1Cc1cccc(OC)c1)c1cccc(C)c1 | inconclusive: 39.8 µM [inhibitor, single point] |  |
| Cc1cc(Br)ccc1NC(=O)COc1cc(=O)n(C)c2ccccc12 |  | inactive: -18.2% |
| Cc1nnc(N2CCC(C(=O)NCc3ccc(F)cc3)CC2)c2nn(-c3ccc(Cl)cc3)c(C)c12 | inconclusive: 39.8 µM [inhibitor, single point] |  |
| CCOCC(=O)Nc1ccc(-c2cn3c(C)csc3n2)cc1 | active: 1.26 µM |  |
| Cc1cccc2cc(CN(C(=O)c3cccc(Cl)c3)c3ccccc3)c(=O)[nH]c12 |  | inactive: -14% |
| COc1ccccc1Nc1nn2c(=O)c3ccc(C(=O)NC4CCC(C)CC4)cc3nc2s1 (centres undefined) |  | inactive: -4.4% |
| COc1ccc(C(=O)Nc2ccccc2)cc1S(=O)(=O)Nc1ccc(Br)cc1 |  | inactive: -25.9% |
| O=C(Nc1ccc2nc(SCC(=O)N3CCCc4ccccc43)sc2c1)c1ccccc1F | inconclusive: 28.2 µM [inhibitor, single point] |  |
| CCc1ccc(C2=C(C)C(N3CCC(C(=O)Nc4ccc(F)cc4)CC3)=NS2(=O)=O)cc1 | inconclusive: 28.2 µM [inhibitor, single point] |  |
| COc1ccc(C2C=C(c3ccccc3)Nc3nc(NC(=O)/C=C/c4ccc(F)cc4)nn32)cc1 (centres undefined) |  | inactive: -29.1% |
| CCC(C)Sc1c(C(C)C)cnc2c1c(=O)n(C)c(=O)n2C (centres undefined) | inconclusive: 39.8 µM [inhibitor, single point] |  |
| COc1ccc2c(c1)C=C(C(=O)NCc1cc(Br)ccc1OC)CO2 |  | inactive: -23.7% |
| Cc1cccc(C(=O)Nc2ccc3oc(-c4ccncc4)nc3c2)c1 | inconclusive: 14.1 µM [inhibitor, partial curve, poor fit] |  |
